Out of some 310,000 compounds screened, about 2,200 (0.71%) showed an effect of 50% or more. Effects have a minus sign here. Some of the results follow.
Target: human ether-à-go-go-related gene (hERG) potassium channel (human, UniProt Q12809)
Test: primary screen, population patch clamp on CHO cells stably expressing hERG

Chain of human ether-à-go-go-related gene (hERG) potassium channel (Q12809 whole entry, looked up): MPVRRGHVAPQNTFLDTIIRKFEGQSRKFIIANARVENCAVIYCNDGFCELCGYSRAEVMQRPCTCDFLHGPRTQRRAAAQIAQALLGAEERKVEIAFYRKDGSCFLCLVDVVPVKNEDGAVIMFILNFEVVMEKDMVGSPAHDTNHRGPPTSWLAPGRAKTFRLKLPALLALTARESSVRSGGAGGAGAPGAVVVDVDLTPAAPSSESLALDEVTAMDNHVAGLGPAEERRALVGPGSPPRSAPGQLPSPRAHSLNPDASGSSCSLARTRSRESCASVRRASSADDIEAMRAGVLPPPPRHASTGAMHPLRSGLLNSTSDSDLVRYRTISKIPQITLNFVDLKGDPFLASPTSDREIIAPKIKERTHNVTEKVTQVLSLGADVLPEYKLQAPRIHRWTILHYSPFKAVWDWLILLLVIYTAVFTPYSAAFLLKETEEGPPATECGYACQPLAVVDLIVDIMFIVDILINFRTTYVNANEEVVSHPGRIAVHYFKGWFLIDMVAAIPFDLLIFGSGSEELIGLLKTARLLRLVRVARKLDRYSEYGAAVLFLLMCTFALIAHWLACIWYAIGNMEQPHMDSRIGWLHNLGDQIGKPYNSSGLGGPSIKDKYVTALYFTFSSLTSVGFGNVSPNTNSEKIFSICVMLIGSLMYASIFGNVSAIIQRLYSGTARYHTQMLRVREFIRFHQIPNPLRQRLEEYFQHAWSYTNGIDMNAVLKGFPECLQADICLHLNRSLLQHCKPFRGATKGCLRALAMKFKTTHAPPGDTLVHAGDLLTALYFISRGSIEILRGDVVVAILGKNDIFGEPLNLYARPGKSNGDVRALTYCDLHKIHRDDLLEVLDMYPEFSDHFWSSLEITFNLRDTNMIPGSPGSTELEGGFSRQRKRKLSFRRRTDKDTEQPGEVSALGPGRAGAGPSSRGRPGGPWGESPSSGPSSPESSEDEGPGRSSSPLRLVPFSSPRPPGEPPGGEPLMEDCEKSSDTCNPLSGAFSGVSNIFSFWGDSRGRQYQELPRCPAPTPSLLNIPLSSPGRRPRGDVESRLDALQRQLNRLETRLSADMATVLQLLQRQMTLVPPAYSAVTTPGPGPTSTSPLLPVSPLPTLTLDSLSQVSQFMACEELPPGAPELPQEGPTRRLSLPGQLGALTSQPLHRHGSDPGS

SMILES	hERG current change (%, negative = inhibition) at 1uM [%]
Clc1ccc(-c2nnc(Sc3nc4ccccc4o3)c3ccccc23)cc1	5.36
Cc1cc(C)c2nc(-c3ccccn3)cc(C(=O)n3cccn3)c2c1	14.7
O=C(CSc1c2c(nc3ccc(Cl)cc13)CCCC2)NCCCN1CCOCC1	2.77
C=CCc1c(NCCO)nc(C)[nH]c1=O	12.9
COc1ccc(CCN2C(=O)NC(NC(=O)CCc3ccccc3)(C(F)(F)F)C2=O)cc1OC (stereo not drawn)	4.91
COc1ccc(S(=O)(=O)N2CCC(C(=O)Nc3nccs3)CC2)cc1	10.1
COc1ccc(CNC(=O)c2cc(=O)c3cc(C)ccc3o2)cc1	1.33
COC(=O)c1cc(NC(=O)CSc2nncn2C)cc(C(=O)OC)c1	-7.86
Cc1cc(C)cc(NC(=O)CSc2nc3[nH]ncc3c(=O)[nH]2)c1	7.45
CC(O)[C@H]1CN=C(N)N1CC1CCCCC1 (stereo partly drawn)	19.9
COc1ccc(/C=C2/C(=O)OCc3cc(OC)c(OC)cc32)cc1	16.1
CCN1CCN(CCCNC(=O)c2cc3sccc3n2CC)CC1	-3.68
O=C(NNC(=S)Nc1ccccc1)c1ccc(O)cc1	15.2
CC1CC(C)(C)CC2(C1)NC(=O)N(CC(=O)N(Cc1ccccc1)c1ccccc1)C2=O (stereo not drawn)	12.5
CC1CC(C)CN(CC(O)COCc2ccccc2)C1.Cl (stereo not drawn)	8.75
CCCCCC(=O)N/N=C/c1ccco1	5.03
COc1ccc(N2CCN(C(=O)CNC(=O)c3ccc(Br)o3)CC2)cc1	9.23
O=C(O)c1cccc(N2C(=O)C3CC=C(Cl)CC3C2=O)c1 (stereo not drawn)	8.2
O=C(/C=C/c1c[nH]c2ccccc12)c1ccccc1	14.3

SMILES	hERG current change (%, negative = inhibition) at 1uM [%]
O=c1[nH]cnc2sc3c(c12)CCC3	-3.49
CC(NC(=O)c1c(F)cccc1Cl)c1ccc(-n2ccnc2)cc1 (stereo not drawn)	10.5
CSc1nc2ccc(NC(=O)C3CC(=O)N(Cc4ccco4)C3)cc2s1 (stereo not drawn)	-17.2
C1=C[C@@H]2CCN(Cc3ccccc3)Cc3cccc(c32)C1	-6.63
COc1cccc(C(O)c2nccn2Cc2ccccc2)c1OC (stereo not drawn)	10.2
COc1ccc(C(C#N)N2N=C(C)CC2c2ccccc2)cc1OC (stereo not drawn)	5.43
COc1ccc(CCNC(=O)C2CCC(CNS(=O)(=O)c3ccccc3)CC2)cc1OC (stereo not drawn)	1.8
C=CCc1ccc(OCCOc2ccc(/C=N/n3cnnc3)cc2OCC)c(OC)c1	8.83
CCc1nc(SCC(=O)Nc2nc3c(s2)CCCC3)c2ccccc2n1	-5.26
CCOC(=O)c1cc(C)sc1NC(=O)CN1CCN(C(=O)C2CCCO2)CC1 (stereo not drawn)	0.585
CCCCOc1ccc(C(=O)N/C(=C/C=C/c2ccccc2)C(=O)NC)cc1	-24.7
CCOC(=O)N1CCC(N2Cc3cccc(C(=O)Nc4ccc(S(=O)(=O)N(CC)CC)cc4)c3C2=O)CC1	16.3
COc1ccccc1C1=NC(c2ccccc2)CN1c1ccccc1 (stereo not drawn)	6.78
CS(=O)(=O)N1CCCC(C(=O)NCCCN2CCOCC2)C1 (stereo not drawn)	-5.08
CC(C)CNS(=O)(=O)c1ccc(CCC(=O)Nc2ccc3c(c2)OCCO3)cc1	16.6
COc1cc2c(cc1OC)CN(CC(=O)Nc1ccccc1C#N)CC2	-1.89
COc1ccccc1OCCNC(=O)c1cccc(S(=O)(=O)N2CCN(C)CC2)c1	8.31
O=C(N/N=C/c1cn(-c2ccccc2)nc1-c1cccnc1)c1cccnc1	-26.3
Cc1nc(-c2coc3cc(O)c(C)cc3c2=O)cs1	8.07

SMILES	hERG current change (%, negative = inhibition) at 1uM [%]
NC(=O)c1c(NC(=O)CSc2nc(N)cc(=O)[nH]2)sc2c1CCCC2	11.8
O=C(O)Cc1ccc2[nH]c3ccc(CC(=O)O)cc3c2c1	10.2
O=C1CC(c2nc3ccccc3[nH]2)CN1c1cccc(C(F)(F)F)c1 (stereo not drawn)	2.47
O=C1c2[nH]nc(-c3ccccc3O)c2C(c2ccc(F)cc2)N1CC1CCCO1 (stereo not drawn)	9.86
COc1ccc(-n2nnnc2SCC(=O)c2cc3ccccc3o2)cc1	-0.102
C=C(C)COc1ccc(-c2nc(N)nc(C)c2-c2ccc(OC)cc2)c(O)c1	4.2
CCn1cc(C(=O)NC2CCCCC2)c(=O)c2ccc(C)nc21	10.8
CC1(C)Cc2c(sc3c2c(=N)n(Cc2ccco2)c(=O)n3CC(=O)Nc2cccc(Cl)c2)CO1	11.9
O=C(NC1CCCCC1)C1CC(=O)N(c2cccc([N+](=O)[O-])c2)C1 (stereo not drawn)	10.7
CCNc1nc(-c2cc(C)n(Cc3ccco3)c2C)cs1	7.49
Cc1ccc(/C=N/N2CCN(C3c4ccccc4-c4ccccc43)CC2)o1	12.6
Cc1ccc(NC(=O)Cn2cnc3c(oc4nc5c(cc43)COC(C)(C)C5)c2=O)cc1	9.64
CN(CCc1ccccn1)C(=O)c1ccc(OC2CCN(Cc3ccccn3)CC2)cc1	11.3
O=C(CCCCCN1C(=O)CCC1=O)Nc1ccc2c(c1)OCO2	14.8
O=C(NNC(=S)Nc1ccc(F)cc1)[C@H]1C[C@@H]1c1ccccc1	13.2
O=C(Nc1nccs1)C1C2CC3OC(=O)C1C3C2 (stereo not drawn)	13.7
O=C1CCc2cc(S(=O)(=O)N3CCCC3C(=O)N3CCN(c4ccccc4F)CC3)ccc2N1 (stereo not drawn)	6.96
Cc1cc(NC(=O)Nc2ccc(C)c(C)c2)no1	5.77
CCC(C)C(NC(=O)CCCNC(=O)CCC(=O)OC1O[C@H]2OC3(C)CC[C@H]4[C@H](C)CCC(C1C)C24OO3)C(=O)O (stereo partly drawn)	12

Reference: PMC4336329 (PLoS ONE, 2015)
